# Laboratory results as given in the supplement of paper PMC12217912.
# The list shows a part of the results. The full chains were built here from the parent and the listed change. Values near 0.05 are background.
# B1: TEV protease; numbered along this chain (parent)
# chain: MGESLFKGPRDYNPISSSICHLTNESDGHTTSLYGIGFGPFIITNKHLFRRNNGTLVVQSLHGVFKVKDTTTLQQHLVDGRDMIIIRMPKDFPPFPQKLKFREPQREERICLVTTNFQTKSMSSMVSDTSCTFPSGDGIFWKHWIQTKDGQCGSPLVSTRDGFIVGIHSASNFTNTNNYFTSVPKNFMELLTNQEAQQWVSGWRLNADSVLWGGHKVFMVKPEEPFQPVKEATQL
# Variants of: B1
# Assay: raw area under fraction-flipped curve 0-4 h after induction (AUC4h, not background-subtracted), DNA-recorder readout of cleavage of the substrate (dimensionless); higher = more cleavage of the substrate by the protease variant
# Conditions: temperature: 34 °C; time window: 0-4 h after rhamnose induction
# Procedure: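 In vivo DNA recorder in E. coli TOP10(DE3) ΔrhaA at 34 °C. Each TEVp single-site mutant (parent TEVp 0) is paired with a single-site variant of the 7-mer TEVs (canonical ENLYFQ|S). The substrate sits between flexible linkers in a Bxb1-sfGFP-TEVs-SsrA fusion, so cleavage stabilises Bxb1 and speeds flipping of a recombination array, read by NGS. The value is the raw area under the fraction-flipped curve over 0-4 h after rhamnose induction (AUC4h), with ≥20 reads per time point. It is not background-subtracted; inactive controls average about 0.047.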
# 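Note: Bxb1 expression induced with 0.2% (w/v) L-rhamnose at OD600 near 0.5, cultures sampled hourly, flipped fraction per protease–substrate barcode pair counted by paired-end Illumina sequencing.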
variant,measurement,value
E103V,area with substrate CNLYFQS,0.0562
same,area with substrate DNLYFQS,0.0856
same,area with substrate HNLYFQS,0.0724
same,area with substrate INLYFQS,0.062
same,area with substrate LNLYFQS,0.069
same,area with substrate MNLYFQS,0.0604
same,area with substrate NNLYFQS,0.066
same,area with substrate PNLYFQS,0.0676
same,area with substrate QNLYFQS,0.0742
same,area with substrate RNLYFQS,0.0682
same,area with substrate VNLYFQS,0.0513
same,area with substrate WNLYFQS,0.0593
same,area with substrate YNLYFQS,0.0566
Q105E,area with substrate CNLYFQS,0.0668
same,area with substrate DNLYFQS,0.103
same,area with substrate GNLYFQS,0.0766
same,area with substrate MNLYFQS,0.0629
same,area with substrate NNLYFQS,0.0764
same,area with substrate SNLYFQS,0.0806
same,area with substrate TNLYFQS,0.0799
same,area with substrate WNLYFQS,0.0587
same,area with substrate YNLYFQS,0.0534
Q105Y,area with substrate CNLYFQS,0.0705
same,area with substrate DNLYFQS,0.0778
same,area with substrate GNLYFQS,0.0685
same,area with substrate HNLYFQS,0.058
same,area with substrate KNLYFQS,0.0663
same,area with substrate LNLYFQS,0.0601
same,area with substrate MNLYFQS,0.0601
same,area with substrate NNLYFQS,0.0674
same,area with substrate PNLYFQS,0.0653
same,area with substrate SNLYFQS,0.0765
same,area with substrate TNLYFQS,0.0663
same,area with substrate WNLYFQS,0.0625
same,area with substrate YNLYFQS,0.0313
R106T,area with substrate CNLYFQS,0.0642
same,area with substrate DNLYFQS,0.0702
same,area with substrate FNLYFQS,0.0551
same,area with substrate GNLYFQS,0.0755
same,area with substrate HNLYFQS,0.0771
same,area with substrate INLYFQS,0.0732
same,area with substrate KNLYFQS,0.0587
same,area with substrate MNLYFQS,0.0418
same,area with substrate NNLYFQS,0.0565
same,area with substrate PNLYFQS,0.0721
same,area with substrate QNLYFQS,0.0663
same,area with substrate SNLYFQS,0.0635
same,area with substrate TNLYFQS,0.0632
same,area with substrate VNLYFQS,0.062
same,area with substrate WNLYFQS,0.0416
same,area with substrate YNLYFQS,0.0511
E107G,area with substrate CNLYFQS,0.0454
same,area with substrate DNLYFQS,0.0729
same,area with substrate HNLYFQS,0.0628
same,area with substrate LNLYFQS,0.0652
same,area with substrate MNLYFQS,0.0725
same,area with substrate PNLYFQS,0.0682
same,area with substrate TNLYFQS,0.0637
same,area with substrate VNLYFQS,0.0711
same,area with substrate WNLYFQS,0.0589
E107H,area with substrate CNLYFQS,0.0686
same,area with substrate DNLYFQS,0.0755
same,area with substrate NNLYFQS,0.0611
same,area with substrate PNLYFQS,0.0606
same,area with substrate TNLYFQS,0.04
same,area with substrate VNLYFQS,0.0605
same,area with substrate WNLYFQS,0.0598
E108D,area with substrate CNLYFQS,0.0628
same,area with substrate DNLYFQS,0.0802
same,area with substrate FNLYFQS,0.0325
same,area with substrate GNLYFQS,0.0926
same,area with substrate HNLYFQS,0.0595
same,area with substrate LNLYFQS,0.0633
same,area with substrate MNLYFQS,0.073
same,area with substrate NNLYFQS,0.0729
same,area with substrate PNLYFQS,0.0735
same,area with substrate SNLYFQS,0.0649
same,area with substrate TNLYFQS,0.0631
same,area with substrate VNLYFQS,0.0712
same,area with substrate WNLYFQS,0.0483
same,area with substrate YNLYFQS,0.0554
E108M,area with substrate CNLYFQS,0.0599
same,area with substrate DNLYFQS,0.0664
same,area with substrate FNLYFQS,0.0517
same,area with substrate GNLYFQS,0.0593
same,area with substrate HNLYFQS,0.0635
same,area with substrate KNLYFQS,0.0405
same,area with substrate LNLYFQS,0.0567
same,area with substrate NNLYFQS,0.0702
same,area with substrate PNLYFQS,0.0573
same,area with substrate TNLYFQS,0.0768
same,area with substrate WNLYFQS,0.0514
same,area with substrate YNLYFQS,0.0601
R109E,area with substrate CNLYFQS,0.0477
same,area with substrate DNLYFQS,0.0631
same,area with substrate FNLYFQS,0.0666
same,area with substrate GNLYFQS,0.0721
same,area with substrate HNLYFQS,0.0543
same,area with substrate KNLYFQS,0.0621
same,area with substrate LNLYFQS,0.0761
same,area with substrate MNLYFQS,0.071
same,area with substrate NNLYFQS,0.0598
same,area with substrate PNLYFQS,0.0657
same,area with substrate RNLYFQS,0.0591
same,area with substrate SNLYFQS,0.0643
same,area with substrate VNLYFQS,0.0768
same,area with substrate WNLYFQS,0.0734
I110S,area with substrate CNLYFQS,0.0592
same,area with substrate DNLYFQS,0.0526
same,area with substrate FNLYFQS,0.0522
same,area with substrate HNLYFQS,0.0484
same,area with substrate INLYFQS,0.0463
same,area with substrate KNLYFQS,0.0543
same,area with substrate LNLYFQS,0.0547
same,area with substrate MNLYFQS,0.0579
same,area with substrate SNLYFQS,0.0666
same,area with substrate TNLYFQS,0.083
same,area with substrate WNLYFQS,0.0425
same,area with substrate YNLYFQS,0.041
C111W,area with substrate CNLYFQS,0.0759
same,area with substrate DNLYFQS,0.0859
same,area with substrate HNLYFQS,0.0729
same,area with substrate INLYFQS,0.0589
same,area with substrate PNLYFQS,0.0772
same,area with substrate SNLYFQS,0.0724
same,area with substrate WNLYFQS,0.0722
same,area with substrate YNLYFQS,0.0552
L112R,area with substrate CNLYFQS,0.0709
same,area with substrate DNLYFQS,0.0878
same,area with substrate FNLYFQS,0.0692
same,area with substrate GNLYFQS,0.0703
same,area with substrate HNLYFQS,0.057
same,area with substrate INLYFQS,0.0618
same,area with substrate KNLYFQS,0.0668
same,area with substrate LNLYFQS,0.0544
same,area with substrate NNLYFQS,0.0648
same,area with substrate PNLYFQS,0.0611
same,area with substrate SNLYFQS,0.0682
same,area with substrate TNLYFQS,0.0581
same,area with substrate WNLYFQS,0.0576
same,area with substrate YNLYFQS,0.0471
V113Q,area with substrate CNLYFQS,0.0637
same,area with substrate DNLYFQS,0.0443
same,area with substrate HNLYFQS,0.0649
same,area with substrate INLYFQS,0.0617
same,area with substrate KNLYFQS,0.0605
same,area with substrate LNLYFQS,0.0499
same,area with substrate PNLYFQS,0.0551
same,area with substrate SNLYFQS,0.063
same,area with substrate TNLYFQS,0.0735
same,area with substrate VNLYFQS,0.0415
same,area with substrate WNLYFQS,0.0548
same,area with substrate YNLYFQS,0.0608
T114A,area with substrate CNLYFQS,0.0804
same,area with substrate DNLYFQS,0.0711
same,area with substrate FNLYFQS,0.0972
same,area with substrate GNLYFQS,0.079
same,area with substrate HNLYFQS,0.0505
same,area with substrate KNLYFQS,0.0603
same,area with substrate LNLYFQS,0.0665
same,area with substrate MNLYFQS,0.0746
same,area with substrate PNLYFQS,0.0561
same,area with substrate QNLYFQS,0.0751
same,area with substrate SNLYFQS,0.0618
same,area with substrate TNLYFQS,0.064
same,area with substrate VNLYFQS,0.079
same,area with substrate WNLYFQS,0.0535
